# In PMC9911399, “Two distinct binding modes provide the RNA-binding protein RbFox with extraordinary sequence specificity”:
# Residue numbers refer to the chain shown, from its start. Some of the results follow.
# T1: RBFOX1 RRM RbFoxmut (Fox-RRM*) (Homo sapiens, UniProt Q9NWB1 109-208, R118D;E147R;N151S;E152T)
# T1 sequence: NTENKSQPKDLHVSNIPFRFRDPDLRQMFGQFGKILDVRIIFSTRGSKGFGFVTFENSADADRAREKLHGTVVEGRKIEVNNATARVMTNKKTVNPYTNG
# B1: AAACGCU (DNA:RNA)
# RNA: GGGAGACCGGAAUUCAGAUUGUCCAAACGCUUUAAAUCCCGUCGUAGCCACCA
# DNA 1: CAATCTGAATTCCGGTCTCCC
# DNA 2: TGGTGGCTACGACGGGATT
# B2: UAUGCUA (DNA:RNA)
# RNA: B1 RNA with A25U, A27U, C28G, G29C, C30U, U31A
# DNA 1: CAATCTGAATTCCGGTCTCCC
# DNA 2: TGGTGGCTACGACGGGATT
# B3: UGUCGGU (DNA:RNA)
# RNA: B1 RNA with A25U, A26G, A27U, C30G
# DNA 1: CAATCTGAATTCCGGTCTCCC
# DNA 2: TGGTGGCTACGACGGGATT
# B4: ACUGACA (DNA:RNA)
# RNA: B1 RNA with A26C, A27U, C28G, G29A, U31A
# DNA 1: CAATCTGAATTCCGGTCTCCC
# DNA 2: TGGTGGCTACGACGGGATT
# B5: CAACCUA (DNA:RNA)
# RNA: B1 RNA with A25C, G29C, C30U, U31A
# DNA 1: CAATCTGAATTCCGGTCTCCC
# DNA 2: TGGTGGCTACGACGGGATT
# B6: CCCGUAU (DNA:RNA)
# RNA: B1 RNA with A25C, A26C, A27C, C28G, G29U, C30A
# DNA 1: CAATCTGAATTCCGGTCTCCC
# DNA 2: TGGTGGCTACGACGGGATT
# B7: CCCGUGA (DNA:RNA)
# RNA: GGGAGACCGGAAUUCAGAUUGUCCCCCGUGAUUAAAUCCCGUCGUAGCCACCA
# DNA 1: CAATCTGAATTCCGGTCTCCC
# DNA 2: TGGTGGCTACGACGGGATT
# B8: GAACUCG (DNA:RNA)
# RNA: B1 RNA with A25G, G29U, U31G
# DNA 1: CAATCTGAATTCCGGTCTCCC
# DNA 2: TGGTGGCTACGACGGGATT
# B9: GUUAUCG (DNA:RNA)
# RNA: B1 RNA with A25G, A26U, A27U, C28A, G29U, U31G
# DNA 1: CAATCTGAATTCCGGTCTCCC
# DNA 2: TGGTGGCTACGACGGGATT
# B10: AGCUCCA (DNA:RNA)
# RNA: B1 RNA with A26G, A27C, C28U, G29C, U31A
# DNA 1: CAATCTGAATTCCGGTCTCCC
# DNA 2: TGGTGGCTACGACGGGATT
# B11: CUUUCGA (DNA:RNA)
# RNA: B7 RNA with C26U, C27U, G28U, U29C
# DNA 1: CAATCTGAATTCCGGTCTCCC
# DNA 2: TGGTGGCTACGACGGGATT
# B12: CCAGUAA (DNA:RNA)
# RNA: B7 RNA with C27A, G30A
# DNA 1: CAATCTGAATTCCGGTCTCCC
# DNA 2: TGGTGGCTACGACGGGATT
# B13: GAUGUGA (DNA:RNA)
# RNA: B7 RNA with C25G, C26A, C27U
# DNA 1: CAATCTGAATTCCGGTCTCCC
# DNA 2: TGGTGGCTACGACGGGATT
# B14: GCCGGUU (DNA:RNA)
# RNA: B7 RNA with C25G, U29G, G30U, A31U
# DNA 1: CAATCTGAATTCCGGTCTCCC
# DNA 2: TGGTGGCTACGACGGGATT
# B15: GUUUCCC (DNA:RNA)
# RNA: B1 RNA with A25G, A26U, A27U, C28U, G29C, U31C
# DNA 1: CAATCTGAATTCCGGTCTCCC
# DNA 2: TGGTGGCTACGACGGGATT
# B16: UCAUCUC (DNA:RNA)
# RNA: B1 RNA with A25U, A26C, C28U, G29C, C30U, U31C
# DNA 1: CAATCTGAATTCCGGTCTCCC
# DNA 2: TGGTGGCTACGACGGGATT
# B17: CGCAUGU (DNA:RNA)
# RNA: B7 RNA with C26G, G28A, A31U
# DNA 1: CAATCTGAATTCCGGTCTCCC
# DNA 2: TGGTGGCTACGACGGGATT
# B18: GUAGUAG (DNA:RNA)
# RNA: B7 RNA with C25G, C26U, C27A, G30A, A31G
# DNA 1: CAATCTGAATTCCGGTCTCCC
# DNA 2: TGGTGGCTACGACGGGATT
# B19: UCAUGCC (DNA:RNA)
# RNA: B1 RNA with A25U, A26C, C28U, U31C
# DNA 1: CAATCTGAATTCCGGTCTCCC
# DNA 2: TGGTGGCTACGACGGGATT
# B20: GCGAGCG (DNA:RNA)
# RNA: B1 RNA with A25G, A26C, A27G, C28A, U31G
# DNA 1: CAATCTGAATTCCGGTCTCCC
# DNA 2: TGGTGGCTACGACGGGATT
# B21: ACCGGCG (DNA:RNA)
# RNA: B1 RNA with A26C, A27C, C28G, U31G
# DNA 1: CAATCTGAATTCCGGTCTCCC
# DNA 2: TGGTGGCTACGACGGGATT
# B22: AGUAGGA (DNA:RNA)
# RNA: B1 RNA with A26G, A27U, C28A, C30G, U31A
# DNA 1: CAATCTGAATTCCGGTCTCCC
# DNA 2: TGGTGGCTACGACGGGATT
# B23: UAAGACU (DNA:RNA)
# RNA: B1 RNA with A25U, C28G, G29A
# DNA 1: CAATCTGAATTCCGGTCTCCC
# DNA 2: TGGTGGCTACGACGGGATT
# B24: UGUGAUA (DNA:RNA)
# RNA: B7 RNA with C25U, C26G, C27U, U29A, G30U
# DNA 1: CAATCTGAATTCCGGTCTCCC
# DNA 2: TGGTGGCTACGACGGGATT
# B25: AAGCUGA (DNA:RNA)
# RNA: B1 RNA with A27G, G29U, C30G, U31A
# DNA 1: CAATCTGAATTCCGGTCTCCC
# DNA 2: TGGTGGCTACGACGGGATT
# B26: ACAAGAU (DNA:RNA)
# RNA: B1 RNA with A26C, C28A, C30A
# DNA 1: CAATCTGAATTCCGGTCTCCC
# DNA 2: TGGTGGCTACGACGGGATT
# B27: UAGUGGC (DNA:RNA)
# RNA: B1 RNA with A25U, A27G, C28U, C30G, U31C
# DNA 1: CAATCTGAATTCCGGTCTCCC
# DNA 2: TGGTGGCTACGACGGGATT
# B28: ACUGAUG (DNA:RNA)
# RNA: B7 RNA with C25A, C27U, U29A, G30U, A31G
# DNA 1: CAATCTGAATTCCGGTCTCCC
# DNA 2: TGGTGGCTACGACGGGATT
# B29: CAGUCAG (DNA:RNA)
# RNA: B1 RNA with A25C, A27G, C28U, G29C, C30A, U31G
# DNA 1: CAATCTGAATTCCGGTCTCCC
# DNA 2: TGGTGGCTACGACGGGATT
# B30: CUUGUUG (DNA:RNA)
# RNA: B7 RNA with C26U, C27U, G30U, A31G
# DNA 1: CAATCTGAATTCCGGTCTCCC
# DNA 2: TGGTGGCTACGACGGGATT
# B31: ACGGCGU (DNA:RNA)
# RNA: B7 RNA with C25A, C27G, U29C, A31U
# DNA 1: CAATCTGAATTCCGGTCTCCC
# DNA 2: TGGTGGCTACGACGGGATT
# Molecular target: T1, RBFOX1 RRM RbFoxmut (Fox-RRM*)
# Test: EMSA; HiTS-Eq, 1 nM pool, 10 min; buffer printed only for the single-RNA assays: 10 mM Tris pH 7.5, 150 mM NaCl, 3.4 mM EDTA, 0.001% NP-40, 30 C
# Conditions: tags: His6 N-terminal (pET28a); label: 5' 32P
# In short: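 Purified wild-type or mutant RbFox RRM at increasing concentrations was equilibrated with 1 nM of 5′-radiolabelled RNA carrying 7 randomized nucleotides for 10 min in 50 µL. Unbound RNA was separated by 8% native PAGE and sequenced. Relative association constants came from read-count changes of each RNA species compared with the control reaction, normalised to the cognate motif.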
row,Binder,binding signal
1,B1,0.0595 KA relative to UGCAUGU
2,B2,0.079 KA relative to UGCAUGU
3,B3,0.112 KA relative to UGCAUGU
4,B4,0.0695 KA relative to UGCAUGU
5,B5,0.104 KA relative to UGCAUGU
6,B6,0.0911 KA relative to UGCAUGU
7,B7,0.0904 KA relative to UGCAUGU
8,B8,0.0544 KA relative to UGCAUGU
9,B9,0.171 KA relative to UGCAUGU
10,B10,0.0731 KA relative to UGCAUGU
11,B11,0.079 KA relative to UGCAUGU
12,B12,0.108 KA relative to UGCAUGU
13,B13,0.0836 KA relative to UGCAUGU
14,B14,0.0826 KA relative to UGCAUGU
15,B15,0.0699 KA relative to UGCAUGU
16,B16,0.0684 KA relative to UGCAUGU

row,Binder,binding signal
1,B17,1.08 KA relative to UGCAUGU
2,B18,0.147 KA relative to UGCAUGU
3,B19,0.202 KA relative to UGCAUGU
4,B20,0.128 KA relative to UGCAUGU
5,B21,0.0937 KA relative to UGCAUGU
6,B22,0.0722 KA relative to UGCAUGU
7,B23,0.063 KA relative to UGCAUGU
8,B24,0.175 KA relative to UGCAUGU
9,B25,0.0712 KA relative to UGCAUGU
10,B26,0.102 KA relative to UGCAUGU
11,B27,0.0869 KA relative to UGCAUGU
12,B28,0.114 KA relative to UGCAUGU
13,B29,0.105 KA relative to UGCAUGU
14,B30,0.147 KA relative to UGCAUGU
15,B31,0.116 KA relative to UGCAUGU
